This is an account of results in the supplement of paper PMC12217912.

The list shows a part of the results. Sequences were assembled here from the parent chain. Values near 0.05 are background.

First the molecules themselves.
B1: TEV protease; numbered along this chain (parent)
chain: MGESLFKGPRDYNPISSSICHLTNESDGHTTSLYGIGFGPFIITNKHLFRRNNGTLVVQSLHGVFKVKDTTTLQQHLVDGRDMIIIRMPKDFPPFPQKLKFREPQREERICLVTTNFQTKSMSSMVSDTSCTFPSGDGIFWKHWIQTKDGQCGSPLVSTRDGFIVGIHSASNFTNTNNYFTSVPKNFMELLTNQEAQQWVSGWRLNADSVLWGGHKVFMVKPEEPFQPVKEATQL

In the assay the parent is B1. The assay can be described thus: raw area under fraction-flipped curve 0-4 h after induction (AUC4h, not background-subtracted), DNA-recorder readout of cleavage of the substrate (dimensionless); higher = more cleavage of the substrate by the protease variant. The settings on record: temperature: 34 °C; time window: 0-4 h after rhamnose induction. Here is the method:
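In vivo DNA recorder in E. coli TOP10(DE3) ΔrhaA at 34 °C. Each TEVp single-site mutant (parent TEVp 0) is paired with a single-site variant of the 7-mer TEVs (canonical ENLYFQ|S). The substrate sits between flexible linkers in a Bxb1-sfGFP-TEVs-SsrA fusion, so cleavage stabilises Bxb1 and speeds flipping of a recombination array, read by NGS. The value is the raw area under the fraction-flipped curve over 0-4 h after rhamnose induction (AUC4h), with ≥20 reads per time point. It is not background-subtracted; inactive controls average about 0.047.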
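Also: Bxb1 expression induced with 0.2% (w/v) L-rhamnose at OD600 near 0.5, cultures sampled hourly, flipped fraction per protease–substrate barcode pair counted by paired-end Illumina sequencing.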

For MGESLFKGPRDYNPISSSICHLTNESDGHTTSLYGIGFGPFIITNKHLFRRNNGTLVVQSLHGVFKVKDTTTLQQHLVDGRDMIIIRMPKDFPPFPQKLKFREPQREERICLVTTNFQTKSMSSMVSDTSCTFPSGDGIFWKHWIQTKDGQCGSPLVSTRDGFIVGIHSASNFTNTNNYFTSVPKNFMELLTNQEAQQWVSGWRLIADSVLWGGHKVFMVKPEEPFQPVKEATQL [N206I], the “area with substrate ENAYFQS” value was 0.0582, the “area with substrate ENDYFQS” value stood at 0.071, the “area with substrate ENEYFQS” value turned out to be 0.0611 and the “area with substrate ENGYFQS” value is 0.0524. The “area with substrate ENHYFQS” value worked out at 0.0699, the “area with substrate ENIYFQS” value was 0.0865, the “area with substrate ENKYFQS” value worked out at 0.0503 and the “area with substrate ENNYFQS” value was 0.0541. The “area with substrate ENPYFQS” value was determined as 0.0551, the “area with substrate ENQYFQS” value came to 0.0579, the “area with substrate ENSYFQS” value was 0.0773 and the “area with substrate ENTYFQS” value turned out to be 0.0528. The “area with substrate ENVYFQS” value was 0.0828 and the “area with substrate ENWYFQS” value came out at 0.0344.
In the case of MGESLFKGPRDYNPISSSICHLTNESDGHTTSLYGIGFGPFIITNKHLFRRNNGTLVVQSLHGVFKVKDTTTLQQHLVDGRDMIIIRMPKDFPPFPQKLKFREPQREERICLVTTNFQTKSMSSMVSDTSCTFPSGDGIFWKHWIQTKDGQCGSPLVSTRDGFIVGIHSASNFTNTNNYFTSVPKNFMELLTNQEAQQWVSGWRLNADSFLWGGHKVFMVKPEEPFQPVKEATQL [V210F], the “area with substrate ENAYFQS” value was 0.0505, the “area with substrate ENCYFQS” value is 0.07, the “area with substrate ENFYFQS” value came out at 0.06 and the “area with substrate ENGYFQS” value was 0.06. Also, the “area with substrate ENHYFQS” value worked out at 0.0404, the “area with substrate ENIYFQS” value came to 0.117, the “area with substrate ENKYFQS” value came out at 0.0664 and the “area with substrate ENMYFQS” value worked out at 0.0545. Also, the “area with substrate ENQYFQS” value came to 0.0603, the “area with substrate ENRYFQS” value is 0.035, the “area with substrate ENTYFQS” value worked out at 0.0503 and the “area with substrate ENVYFQS” value amounted to 0.0687.
For the variant MGESLFKGPRDYNPISSSICHLTNESDGHTTSLYGIGFGPFIITNKHLFRRNNGTLVVQSLHGVFKVKDTTTLQQHLVDGRDMIIIRMPKDFPPFPQKLKFREPQREERICLVTTNFQTKSMSSMVSDTSCTFPSGDGIFWKHWIQTKDGQCGSPLVSTRDGFIVGIHSASNFTNTNNYFTSVPKNFMELLTNQEAQQWVSGWRLNADSTLWGGHKVFMVKPEEPFQPVKEATQL [V210T], the “area with substrate ENAYFQS” value was found to be 0.0528, the “area with substrate ENDYFQS” value was determined as 0.0583, the “area with substrate ENEYFQS” value is 0.0867 and the “area with substrate ENFYFQS” value was 0.058. For the same variant, the “area with substrate ENIYFQS” value was found to be 0.0844, the “area with substrate ENPYFQS” value was determined as 0.061, the “area with substrate ENQYFQS” value came out at 0.057 and the “area with substrate ENRYFQS” value is 0.0655. Further, the “area with substrate ENSYFQS” value is 0.0543, the “area with substrate ENTYFQS” value was 0.0681, the “area with substrate ENVYFQS” value came to 0.0611 and the “area with substrate ENWYFQS” value is 0.0328. Also, the “area with substrate ENYYFQS” value was determined as 0.0544.
Consider MGESLFKGPRDYNPISSSICHLTNESDGHTTSLYGIGFGPFIITNKHLFRRNNGTLVVQSLHGVFKVKDTTTLQQHLVDGRDMIIIRMPKDFPPFPQKLKFREPQREERICLVTTNFQTKSMSSMVSDTSCTFPSGDGIFWKHWIQTKDGQCGSPLVSTRDGFIVGIHSASNFTNTNNYFTSVPKNFMELLTNQEAQQWVSGWRLNADSVLWGGHKVAMVKPEEPFQPVKEATQL [F218A], for which the “area with substrate ENAYFQS” value was 0.0351, the “area with substrate ENCYFQS” value stood at 0.0905, the “area with substrate ENDYFQS” value worked out at 0.0621 and the “area with substrate ENGYFQS” value amounted to 0.0657. Further, the “area with substrate ENIYFQS” value came to 0.07, the “area with substrate ENMYFQS” value stood at 0.06, the “area with substrate ENSYFQS” value was determined as 0.0635 and the “area with substrate ENVYFQS” value is 0.0621. Also, the “area with substrate ENWYFQS” value worked out at 0.0535 and the “area with substrate ENYYFQS” value was 0.0439.
On to MGESLFKGPRDYNPISSSICHLTNESDGHTTSLYGIGFGPFIITNKHLFRRNNGTLVVQSLHGVFKVKDTTTLQQHLVDGRDMIIIRMPKDFPPFPQKLKFREPQREERICLVTTNFQTKSMSSMVSDTSCTFPSGDGIFWKHWIQTKDGQCGSPLVSTRDGFIVGIHSASNFTNTNNYFTSVPKNFMELLTNQEAQQWVSGWRLNADSVLWGGHKVDMVKPEEPFQPVKEATQL [F218D], for which the “area with substrate ENAYFQS” value amounted to 0.0497, the “area with substrate ENCYFQS” value was determined as 0.0593, the “area with substrate ENDYFQS” value amounted to 0.0619 and the “area with substrate ENEYFQS” value is 0.0766. Besides, the “area with substrate ENFYFQS” value was found to be 0.0432, the “area with substrate ENNYFQS” value came to 0.0681 and the “area with substrate ENWYFQS” value was 0.0521.
As to MGESLFKGPRDYNPISSSICHLTNESDGHTTSLYGIGFGPFIITNKHLFRRNNGTLVVQSLHGVFKVKDTTTLQQHLVDGRDMIIIRMPKDFPPFPQKLKFREPQREERICLVTTNFQTKSMSSMVSDTSCTFPSGDGIFWKHWIQTKDGQCGSPLVSTRDGFIVGIHSASNFTNTNNYFTSVPKNFMELLTNQEAQQWVSGWRLNADSVLWGGHKVKMVKPEEPFQPVKEATQL [F218K], the “area with substrate ENAYFQS” value is 0.0128, the “area with substrate ENEYFQS” value was 0.0669, the “area with substrate ENFYFQS” value is 0.0749 and the “area with substrate ENGYFQS” value came out at 0.0738. For the same variant, the “area with substrate ENSYFQS” value is 0.0645 and the “area with substrate ENYYFQS” value amounted to 0.064.
For MGESLFKGPRDYNPISSSICHLTNESDGHTTSLYGIGFGPFIITNKHLFRRNNGTLVVQSLHGVFKVKDTTTLQQHLVDGRDMIIIRMPKDFPPFPQKLKFREPQREERICLVTTNFQTKSMSSMVSDTSCTFPSGDGIFWKHWIQTKDGQCGSPLVSTRDGFIVGIHSASNFTNTNNYFTSVPKNFMELLTNQEAQQWVSGWRLNADSVLWGGHKVTMVKPEEPFQPVKEATQL [F218T], the “area with substrate ENAYFQS” value was found to be 0.0526, the “area with substrate ENCYFQS” value was determined as 0.0528, the “area with substrate ENEYFQS” value was 0.0542 and the “area with substrate ENFYFQS” value is 0.0739. The “area with substrate ENNYFQS” value was determined as 0.055, the “area with substrate ENQYFQS” value turned out to be 0.0617, the “area with substrate ENSYFQS” value is 0.07 and the “area with substrate ENTYFQS” value was determined as 0.0566. Further, the “area with substrate ENWYFQS” value is 0.0523.
For MGESLFKGPRDYNPISSSICHLTNESDGHTTSLYGIGFGPFIITNKHLFRRNNGTLVVQSLHGVFKVKDTTTLQQHLVDGRDMIIIRMPKDFPPFPQKLKFREPQREERICLVTTNFQTKSMSSMVSDTSCTFPSGDGIFWKHWIQTKDGQCGSPLVSTRDGFIVGIHSASNFTNTNNYFTSVPKNFMELLTNQEAQQWVSGWRLNADSVLWGGHKVFMLKPEEPFQPVKEATQL [V220L], the “area with substrate ENAYFQS” value was 0.0604, the “area with substrate ENCYFQS” value turned out to be 0.0581, the “area with substrate ENDYFQS” value turned out to be 0.069 and the “area with substrate ENEYFQS” value came to 0.0588. Further, the “area with substrate ENGYFQS” value worked out at 0.067, the “area with substrate ENHYFQS” value worked out at 0.0639, the “area with substrate ENMYFQS” value came out at 0.0701 and the “area with substrate ENNYFQS” value stood at 0.0629. Further, the “area with substrate ENPYFQS” value is 0.0701, the “area with substrate ENQYFQS” value was determined as 0.0538, the “area with substrate ENRYFQS” value was 0.0493 and the “area with substrate ENSYFQS” value amounted to 0.0709. Also, the “area with substrate ENTYFQS” value turned out to be 0.058 and the “area with substrate ENVYFQS” value is 0.0715.
With MGESLFKGPRDYNPISSSICHLTNESDGHTTSLYGIGFGPFIITNKHLFRRNNGTLVVQSLHGVFKVKDTTTLQQHLVDGRDMIIIRMPKDFPPFPQKLKFREPQREERICLVTTNFQTKSMSSMVSDTSCTFPSGDGIFWKHWIQTKDGQCGSPLVSTRDGFIVGIHSASNFTNTNNYFTSVPKNFMELLTNQEAQQWVSGWRLNADSVLWGQHKVFMVKPEEPFQPVKEATQL [G214Q], the “area with substrate ENAYFQS” value amounted to 0.0599, the “area with substrate ENCYFQS” value is 0.0603, the “area with substrate ENDYFQS” value stood at 0.0848 and the “area with substrate ENSYFQS” value came out at 0.0666. In addition, the “area with substrate ENVYFQS” value was determined as 0.0474.
With MGESLFKGPRDYNPISSSICHLTNESDGHTTSLYGIGFGPFIITNKHLFRRNNGTLVVQSLHGVFKVKDTTTLQQHLVDGRDMIIIRMPKDFPPFPQKLKFREPQREERICLVTTNFQTKSMSSMVSDTSCTFPSGDGIFWKHWIQTKDGQCGSPLVSTRDGFIVGIHSASNFTNTNNYFTSVPKNFMELLTNQEAQQWVSGWRLNADSVKWGGHKVFMVKPEEPFQPVKEATQL [L211K], the “area with substrate ENAYFQS” value came out at 0.0706, the “area with substrate ENCYFQS” value was 0.0677, the “area with substrate ENDYFQS” value is 0.0568 and the “area with substrate ENEYFQS” value was found to be 0.0603. Further, the “area with substrate ENFYFQS” value was determined as 0.0664, the “area with substrate ENGYFQS” value was 0.0437, the “area with substrate ENHYFQS” value came out at 0.0658 and the “area with substrate ENNYFQS” value was determined as 0.0631. Besides, the “area with substrate ENQYFQS” value came to 0.0565, the “area with substrate ENSYFQS” value was 0.0378 and the “area with substrate ENVYFQS” value came to 0.0752.
